Measurements taken from PubChem BioAssay AID1240 (Sanford-Burnham Center for Chemical Genomics, 2008).
In all, about 50,000 compounds went through this assay and about 800 (1.6%) showed an effect of 50% or more. Some of the results follow.

target: Bcl-2-like protein 10 (Homo sapiens) (UniProt Q9HD36); experiment: TR3 peptide-Bcl-B binding displacers, biochemical primary FP assay, phenotype converters (AID 1240); conditions: GST-Bcl-B / FITC-TR3 peptide fluorescence polarization; stronger effect = higher value; compound at 3.75 mg/L;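 note: 0% = Bcl-B with tracer peptide and DMSO and 100% = tracer peptide lacking Bcl-B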
UniProt Q9HD36, sequence (Q9HD36 whole entry, looked up): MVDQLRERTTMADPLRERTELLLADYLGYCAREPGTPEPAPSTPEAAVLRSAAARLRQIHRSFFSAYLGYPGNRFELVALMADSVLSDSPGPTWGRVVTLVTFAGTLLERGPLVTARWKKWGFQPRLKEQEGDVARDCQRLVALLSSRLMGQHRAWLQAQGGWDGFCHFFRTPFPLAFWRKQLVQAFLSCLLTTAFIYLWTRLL

SMILES	displacement [%]
S=c1[nH]nc(-c2ccncc2)n1-c1ccccc1	-0.3
CCOC(=O)C1NN=C(C(=O)c2ccc(OC)cc2)C1c1ccccc1 (centres undefined)	13.1
O=C(O)CCC(=O)Nc1cccc(-c2cn3ccccc3n2)c1	10.1
CCOc1ccc(S(=O)(=O)N(CC(=O)NCc2ccco2)c2ccc(C)cc2)cc1	5.7
Cc1ccc(/C(O)=C/c2nc3ccc(C)cc3oc2=O)cc1	39.9
N#C/C(=C\c1cccs1)c1nc(-c2ccc(Cl)cc2Cl)cs1	129
CCOC(=O)c1c(NC(=O)COc2cc(C)ccc2C(C)(C)C)sc(C(C)=O)c1C	-2.3
COc1ccc(/C=C2\C(=O)NC(=O)N(c3cccc(Br)c3)C2=O)c(OC)c1	122
CC(C)(C)c1cc(Br)ccc1OCC(=O)Nc1ccccc1C(N)=O	2.5
Cc1ccc(/C(N)=N/OC(=O)c2cccc(C)c2)cc1	10.6
COc1ccc(N(CC(=O)NC(C)(C)C)S(C)(=O)=O)cc1	0.7
COc1ccc(/C=C2/C(=O)N(c3ccccc3)N=C2c2ccccc2)c(OC)c1	11.4
COc1cc(C=C2C(=O)NC(=O)NC2=O)cc(I)c1OCc1ccc([N+](=O)[O-])cc1	9.6
C=C(C)C1CCC(C)=C1CC/C(C)=N/NC(N)=S (centres undefined)	1.6
CCCCCCOc1ccc(N2C(=O)CC(N(C)Cc3ccccc3)C2=O)cc1 (centres undefined)	1.5
COc1ccc(NC(=O)CSc2nc3ccccc3s2)c(OC)c1	9.2
COc1ccc(OC)c(NC(=O)COc2ccc(C)c(C)c2)c1	0.6
Cc1ccc(OC(=O)c2ccc([N+](=O)[O-])cc2)c(/C=C2\Sc3ccccc3C2=O)c1	-9.6
CCOC(=O)C(CCOc1cc(C)c(Cl)c(C)c1)C(=O)OCC	13.4
COc1ccc(/C=N\NC(=O)c2ccc(S(=O)(=O)c3ccc(C(=O)N/N=C\c4ccc(OC)cc4)cc3)cc2)cc1	-5
O=C(/C=C/c1ccco1)Nc1ccccc1NC(=O)/C=C/c1ccco1	-0.7
Cc1cc(C)nc(/N=C(/NC(=O)c2ccccc2)Nc2ccccc2)n1	-3.5
CC1=C(C(=O)OCc2ccc3c(c2)OCO3)C(c2ccc(O)c([N+](=O)[O-])c2)NC(=O)N1 (centres undefined)	11.9
COc1ccc(C(=O)Nc2nc(-c3ccc(F)cc3)cs2)cc1OC	-2.2
CN=C(Nc1ccc2c(c1)OCO2)SC1CC(=O)N(c2ccc(Cl)cc2)C1=O (centres undefined)	-10.4
Cc1ccc(N2C(=O)CC(Cc3ccc(Cl)cc3)C2=O)cc1C (centres undefined)	14.3

SMILES	displacement [%]
Cc1c(NC(=O)C(C)Sc2ccc(Cl)cc2)c(=O)n(-c2ccccc2)n1C (centres undefined)	-13.6
O=c1oc2cc(OC/C=C/c3ccccc3)ccc2cc1-c1ccccn1	16.9
COc1ccc(N(CC(=O)N2CCOCC2)S(=O)(=O)c2ccccc2[N+](=O)[O-])c(OC)c1	7.3
COC(=O)CC(C(=O)OC)C(CC(=O)OC)C(=O)OC (centres undefined)	16.6
O=C1/C(=C\c2ccc3c(c2)OCO3)SC(=S)N1CCc1ccccc1	-2.3
O=C(O)c1ccc(/C=c2\sc3n(c2=O)CCN=3)cc1	14.9
CC(C)CNC(=O)c1cc(C(=O)NCC(C)C)cc(C(=O)Nc2ccc([N+](=O)[O-])cc2)c1	12.6
O=C(N/N=C/c1ccccc1O)C1CC(=O)N(c2ccc(Cl)cc2)C1 (centres undefined)	-26
CC12CC3(C)CC(C)(C1)CC(C(=O)NCc1cccnc1)(C2)C3	10
CC1=C(C(=O)OCCOC(C)C)C2(O)C(=O)c3ccccc3C2(O)N1 (centres undefined)	-0.4
Cc1ccc(N(CC(=O)N2CCCC2)S(=O)(=O)c2ccc(F)cc2)cc1	0.1
COc1ccccc1C/C(N)=N/OC(=O)COc1ccc(Cl)cc1	1.6
COc1ccc(CSc2nncn2C)cc1	1.2
Oc1cccc(/C=N/Nc2cc(N3CCCCC3)nc(N3CCCCC3)n2)c1	-4.7
COc1ccc(CCNC(=O)C(=O)Nc2cccc(C)c2)cc1	4
COc1cc(C2C(C(=O)OCc3ccccc3)=C(C)NC3=C2C(=O)CCC3)cc(Cl)c1O (centres undefined)	3.1
C=CCOc1c(Br)cc(/C=C2\C(=O)NC(=O)N(c3ccc(Cl)cc3)C2=O)cc1OC	6.4
N#Cc1ccccc1NC(=O)c1ccc(Br)cc1	15.9
COC(=O)COc1ccc(C=C2C(=O)NC(=O)NC2=O)cc1OC	3
Cc1ccc(S(=O)(=O)N(CC(O)CN2CCCCC2)c2cccc(C)c2)cc1 (centres undefined)	-3.9
CSc1nnc2c(n1)OC(c1ccncc1)Nc1ccccc1-2 (centres undefined)	12.6
Cc1cc(/C=C2/SC(=S)NC2=O)c(C)n1-c1ccccc1	-39.7
Cc1cccc(-n2c(C)cc(/C=N/NC(=O)c3ccc(CN4CCOCC4)cc3)c2C)c1	-7.2
O=C(/C=C/c1ccc(F)cc1)c1nc2ccccc2s1	-6
COc1cccc(/C=C2\SC(=S)N(NC(=O)c3ccccc3Br)C2=O)c1	-63.2
O=C(Nc1ccc(NC(=O)c2ccc(-c3ccc([N+](=O)[O-])cc3)o2)cc1)c1ccco1	11

SMILES	displacement [%]
CCN1C(=O)c2cccc3c(NC(=O)c4ccc(C(=O)c5ccccc5)cc4)ccc1c23	101
COc1ccc(NC(=O)CN(c2cccc(Cl)c2)S(C)(=O)=O)cc1	4.5
CCOc1ccc(NC(=O)c2c(NC(=O)CC)sc3c2CCC(C)C3)cc1 (centres undefined)	6.6
CCOc1ccc(C(=O)Nc2ccc(OC(F)(F)F)cc2)cc1Cl	1.7
COc1cc(C2C3=C(CC(C)(C)CC3=O)OC3=C2C(=O)CC(C)(C)C3)ccc1OCc1ccc([N+](=O)[O-])cc1	11.2
C=CCc1cccc2cc(C(=O)N3CCN(c4ccccn4)CC3)c(=O)oc12	8
CCc1ccc(N2C(=O)NC(=O)/C(=C\c3ccc(OCC(=O)O)c(OC)c3)C2=O)cc1	9.9
O=C(CNC(=O)c1ccccc1)c1ccc(Br)cc1	-6.3
COc1ccc(COC(=O)C2=C(C)NC3=C(C(=O)CC(C)(C)C3)C2c2ccc(F)c(F)c2)cc1 (centres undefined)	9.5
CC1(C)CC(=O)C(N=Nc2cc(C(=O)Nc3ccccc3)ccc2Cl)=C(O)C1	6.6
CC(=O)OCCCN1C(=O)c2ccc([N+](=O)[O-])cc2C1=O	8.6
C/C(=N\N=C\c1cccc([N+](=O)[O-])c1)C1C(=O)c2ccccc2C1=O	14.8
COc1ccc(Cl)cc1NCN1C(=O)S/C(=C/c2ccccc2)C1=O	9.5
O=C(CN1C(=O)c2ccccc2C1=O)Nc1ccc(Br)cc1	2.6
O=c1[nH]c(=O)c2nc3cc([N+](=O)[O-])ccc3nc2[nH]1	42.6
COc1ccccc1NC1=C(Cl)C(=O)N(c2cccc(C)c2)C1=O	-9.4
O=C(/C=C/c1ccco1)c1cccs1	3.3
COc1ccc(OC)c(/C=N/NC(=O)C(=O)N2CCCCCC2)c1	-11
Cc1ccc(N=Cc2c(O)n(-c3ccccc3C)c(=O)[nH]c2=O)cc1	9.2
COc1ccc(CN2CCN(Cc3cccn3C)CC2)c(OC)c1	14.4
Cc1cc([N+](=O)[O-])ccc1N1C(=O)C2C3c4ccccc4C(c4ccccc43)C2C1=O (centres undefined)	12
CCc1ccc(N2CC(C(=O)Nc3cccc4ccccc34)CC2=O)cc1 (centres undefined)	9.5
O=C(Nc1ncc(Cc2ccc(Cl)cc2Cl)s1)c1ccccc1	4.1
CC(=O)OC(c1c(F)c(F)c(F)c(F)c1F)c1c(F)c(F)c(F)c(F)c1F	3
CC(=O)N(Cc1ccncc1)c1cccc2ccccc12	2.4
COc1cccc(/C=C2\N=C(c3ccccc3Br)OC2=O)c1	33.4

SMILES	displacement [%]
COc1ccccc1N1CCN(C2CC(=O)N(c3ccc(C(=O)O)cc3)C2=O)CC1 (centres undefined)	-3.7
Cc1ccc(CN=Cc2ccc(OC3CSC3)cc2)cc1	-0.2
CCOP(=O)(OCC)C(Nc1cc(Cl)cc(Cl)c1)c1ccc(Br)cc1 (centres undefined)	1.9
COc1cccc(C2C(C(=O)/C=C/c3ccccc3)=C(O)C(=O)N2CCCCCC(=O)O)c1 (centres undefined)	-2.9
Cc1ccc(N2NC(=O)/C(=C/c3ccccc3)C2=O)cc1C	4.6
O=C(O)c1ccc(SC(C(=O)O)c2ccccc2)cc1 (centres undefined)	11.2
COC(=O)C1=NNC2C(=O)N(Cc3ccccc3)C(=O)C12 (centres undefined)	-1.6
COc1ccc(CCNC(=O)COc2ccccc2C)cc1OC	4.5
Cc1cc(C)c2oc(-c3ccc(C)c(NC(=O)c4cccc([N+](=O)[O-])c4C)c3)nc2c1	4
COC(=O)c1c(NC(=O)C2C3CCC(C3)C2C(=O)O)sc(C)c1-c1ccc(C)cc1 (centres undefined)	-1.1
C(=C\c1nnc(-c2ccccc2)o1)/c1ccccc1	4.9
CC1(C)C(=O)N(Cc2ccc(Cl)c(Cl)c2)c2ccccc2N1C(=O)c1ccc([N+](=O)[O-])cc1	0.4
O=C1S/C(=C\c2ccccc2)C(=O)N1Cc1ccccc1	1.1
Cc1ccc(N2C(=O)c3cccc([N+](=O)[O-])c3C2=O)c(C)c1	4.5
CN(C)c1ccc(/C=N/OC(=O)Nc2ccccc2)cc1	1.6
COc1ccc(C(=O)NC(Nc2ccc(Cl)cc2)C(Cl)(Cl)Cl)cc1OC (centres undefined)	10.8
Cc1ccccc1-c1nc2cc(NC(=O)c3ccccc3[N+](=O)[O-])ccc2o1	15
COCCOC(=O)C1=C(C)NC(=O)NC1c1ccc(C)s1 (centres undefined)	-11
COc1ccc2c(c1)C1C=CCC1C(c1cccc([N+](=O)[O-])c1)N2 (centres undefined)	-2.3
O=C(Nc1ccc(I)cc1)C1c2ccccc2Oc2ccccc21	1.4
C(=N/Nc1nc2ccccc2s1)/c1ccc(N2CCOCC2)cc1	-18.2
CCN(CC)S(=O)(=O)c1ccc(NC(=O)Nc2ccccc2)cc1	-3.3
COc1cc(/C=C2\C(=O)N(c3ccc(S(N)(=O)=O)cc3)N=C2C)cc(Br)c1O	10.5
O=C1NC(c2ccccc2)=C(c2ccc3ccccc3n2)C(c2cccc([N+](=O)[O-])c2)N1 (centres undefined)	7.8
O=C(O)CCCC(=O)Nc1nc(-c2ccc(F)cc2)cs1	0
Cc1ccc(-c2nnc(NC(=O)c3ccccc3C)s2)cc1	3.9
